Hit rate of the full screen: of about 340,000 compounds, about 6,900 (2%) were called active. No stated cut-off is given here; in the data, active means inhibition above about 30%; inactive means below that, where a call was filed. This is a selection; strong and weak results do not stand in their true shares. The source gives no active or inactive call for entries shown without one.

The target of the assay is D(2) dopamine receptor (Homo sapiens) (UniProt P14416). Kind of assay: HTS Assay for Allosteric Antagonists of the Human D2 Dopamine Receptor: Primary Screen for Antagonists. Further: 0% is about no effect. To be noted: HEK293 TREx D2 cells, calcium flux, dopamine EC80; at 10 µM; stronger effect = higher value. The method in brief: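 Calcium mobilization kinetics were recorded at 1 s intervals in tetracycline-induced HEK293 T-REx D2 cells, first for 180 s after compound addition and then 180 s after EC80 dopamine.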
Sequence of UniProt P14416 (P14416 whole entry, looked up): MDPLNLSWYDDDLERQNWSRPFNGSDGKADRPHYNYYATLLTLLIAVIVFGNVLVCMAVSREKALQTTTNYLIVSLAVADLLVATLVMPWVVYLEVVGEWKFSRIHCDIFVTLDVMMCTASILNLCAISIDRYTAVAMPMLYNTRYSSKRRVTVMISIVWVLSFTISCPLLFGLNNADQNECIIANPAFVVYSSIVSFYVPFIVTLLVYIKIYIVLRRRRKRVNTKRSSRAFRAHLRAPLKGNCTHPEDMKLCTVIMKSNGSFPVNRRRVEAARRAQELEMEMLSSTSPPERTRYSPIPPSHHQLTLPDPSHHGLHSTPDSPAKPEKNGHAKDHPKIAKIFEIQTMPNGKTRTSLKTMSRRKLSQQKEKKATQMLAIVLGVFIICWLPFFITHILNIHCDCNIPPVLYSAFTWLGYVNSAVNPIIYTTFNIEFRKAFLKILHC
With `CCOCCCNc1ncnc2c1cnn2-c1ccc(C)c(C)c1`, the inhibition was -4.41%.

With `Cc1cc2c(cc1S(=O)(=O)N1CCCCC1)OCC(=O)N2`, the inhibition was -10.1%. Then `Cc1ccccc1NC(=O)CSc1nc2c(c(=O)n(C)c(=O)n2C)n1Cc1ccccc1F`, with 6.67%. Then `COc1ccc(Cl)cc1S(=O)(=O)n1cnc2ccccc21`, with active: 79%.

Take `O=C(CCS(=O)(=O)c1cccs1)Nc1ccc(C(=O)Nc2ccccc2F)cc1`: the inhibition turned out to be 9.94%. Consider `CCSc1ncc(Cl)c(C(=O)Nc2ccc(S(=O)(=O)N3CCCCC3)cc2)n1`, for which the inhibition was -20.7%. With `CCN(Cc1ccccc1)C(=O)CN(c1ccc(OC)cc1)S(=O)(=O)c1c(C)nn(C)c1C`, the inhibition is -12.6%. Then `CCc1ccc(NC(=O)c2ccc3[nH]c(C)c(C)c3c2)cc1`, with 0.147%; and `CCCCN(CCCC)CCNC(=O)c1cn(CC)c2ccc(S(=O)(=O)N(C)C3CCCCC3)cc2c1=O`, with 4.99%. As for `CCOc1ccc(NC(=O)Cn2c(=O)n(-c3cccc(OC)c3)c(=O)c3c4c(sc32)CCCC4)cc1`, the inhibition is -9.19%. Turning to `CCOC(=O)c1cccnc1SCC(=O)Nc1ccc(C)cc1C`, the inhibition was determined as 22.8%. On to `CCCCc1ccc(NC(=O)c2ccc(=O)n(Cc3cccc(C)c3)c2)cc1`, for which the inhibition was -8.63%. Take `Cc1ccc2c(c1)-c1c(cnc3cc(-c4ccccc4)nn13)CO2`: the inhibition stood at 3.97%. Then `O=C(NCCc1ccccc1)c1nnc(Cc2cccc(F)c2)o1`, with 14.4%.

For `COc1ccc(-c2nc(C)c(CCNS(=O)(=O)c3cc(C)c(C)cc3C)s2)cc1`, the inhibition was -19.4%. Then `CN(C)CCNC(=O)c1ccc2c(=O)n3c(nc2c1)CCCCC3`, with 10%; and `Cn1nnc2c(N3CCN(c4ccccc4Cl)CC3)ncnc21`, with -5.32%; and `COc1ccc(-c2nc(CN3CCC(C(=O)NCc4ccccc4)CC3)c(C)o2)cc1OC`, with -3.29%.

As to `COc1ccc(-c2c3c(=O)n(C)c(=O)n(C)c3c3c(C)nc4ccccc4n23)cc1`, the inhibition is -7.88%.

For `Oc1ccc(N=Nc2ccccc2)cc1`, the inhibition was active: 33.2%.

For the compound `Cc1ccc(-c2nnc(SCc3cccc(C#N)c3)o2)cc1`, the inhibition turned out to be 6.4%.

Take `CCOC(=O)Cn1c(=O)n(-c2ccccc2OC)c2nc(-c3cccc(F)c3)nc(C(N)=O)c21`: the inhibition was 16.6%. As for `COc1cc2[nH]c(-c3ccc(C)cc3)cc(=O)c2cc1OC`, the inhibition is active: 83.9%. The same measure for `CCOC(=O)c1ccccc1NC(=O)N(C(C)C)C1CCN(C(C)=O)CC1`: 18.7%; for `COc1ccc(/C=N/NC(=O)c2ccc(Br)cc2)c(OC)c1`: active: 33.1%; for `O=[N+]([O-])c1c(Nc2ccc(O)cc2)cc(Cl)c2nonc12`: active: 37.5%.

As to `CCCC[n+]1ccn(C2=C([O-])c3ccccc3C(=O)/C2=N\S(=O)(=O)c2ccc(Cl)cc2)c1`, the inhibition is active: 33.7%. Then `CCOc1ccc(CNC(=O)C2CCCN(S(=O)(=O)c3ccc4c(ccn4C)c3)C2)cc1` (centres undefined), with 20.1%; and `CCN(CC)c1cc2c(cc1F)c(=O)c(S(=O)(=O)c1ccc(OC)cc1)cn2CC`, with -3.22%; and `COc1cccc(N2CCN(C(=O)CCc3c(C)nc4c(c3C)c(=O)n(C)c(=O)n4C)CC2)c1`, with 9.28%. Regarding `Cc1ccccc1-n1c(SCc2ccc(Cl)cc2)nc2[nH]ncc2c1=O`, the inhibition was determined as 8.1%.

Take `CCC(C)NC(=O)c1ccc2c(c1)N(Cc1ccccc1)C(=O)c1ccccc1S2` (centres undefined): the inhibition is -12.5%. Turning to `CC(=O)Nc1ccc(S(=O)(=O)N2CCC(n3c(C(F)(F)F)nc4cccnc43)CC2)cc1`, the inhibition is -2.66%. For the compound `Cc1ccc(CCNC(=O)CCCn2nc(C)c3c(C)n(-c4ccccc4)nc3c2=O)cc1`, the inhibition is -10.9%. Turning to `CCOc1cccc2sc(N(CCN(C)C)C(=O)/C=C/c3cccs3)nc12`, the inhibition is active: 65.9%. Then `COc1ccc(CNC(=O)CSc2nc(-c3ccc(OC)cc3)cc(C(F)(F)F)n2)cc1`, with -10.7%; and `CCN1CCN(c2cc(N3CCc4ccccc4C3)c(F)cc2[N+](=O)[O-])CC1`, with active: 61.6%. With `O=C(CCC(=O)c1cccs1)NCc1ccccc1`, the inhibition is active: 34.9%. Then `CC(C)Oc1ccc(CNC(=O)c2cc3ccccn3n2)cc1`, with 6.49%; and `Cc1ccccc1C(=O)c1cccn1CC(=O)NCc1ccccc1`, with -8.93%; and `CCOc1ccc(CCNC(=O)Cn2nc(C)n3c(cc4occc43)c2=O)cc1OCC`, with 3.32%.

For the compound `c1ccc(N2CCN(C3CC4CCC3C4)CC2)cc1` (centres undefined), the inhibition was active: 86.6%. Then `Cc1ccc(C)c(OCCn2c(-c3ccc(Cl)cc3)nc3ccccc3c2=O)c1C`, with -2.45%; and `Cc1ccc(-c2nc3c4ccccc4n(CC(=O)N4CCN(c5ccccc5F)CC4)c(=O)n3n2)cc1`, with 11.2%. The same measure for `Cc1ccccc1CNC(=O)c1cnc2sc(N3CCOCC3)nn2c1=O`: 0.7%; for `Cc1ccc(-n2nnnc2CNC(=O)C(C)(C)C)cc1C`: -5.06%. As to `COc1ccc2ccccc2c1/C=N/NC(=O)c1nnn(-c2nonc2N)c1C(C)C`, the inhibition was active: 34.7%. With `Cc1cccc(Cn2c(C(C)(C)C)cc3cccnc32)c1`, the inhibition was active: 44.8%. The same measure for `COc1ccc(CNC(=O)c2cc(-c3ccc(OC)cc3)on2)cc1`: 9.36%.

Take `Cc1nc(SC(C)C(=O)Nc2ccccc2C)cc(-c2ccccc2)n1` (centres undefined): the inhibition was found to be 5.96%. Then `CC1Sc2ccc(S(=O)(=O)CCC(=O)Nc3ccc(C(C)C)cc3)cc2NC1=O` (centres undefined), with active: 52.1%; and `COCCn1nnnc1SCC(=O)N1CCCCC1`, with active: 34.2%; and `CCN(CC)c1cc(C)c2cc(NC(=O)c3cccc(OC)c3)ccc2n1`, with -4.85%. The same measure for `Cc1cccc2nc(-c3ccco3)c(Nc3ccc4c(c3)OCO4)n12`: -7.66%; for `Cc1cccc(OC(C)C(=O)Nc2ncn[nH]2)c1` (centres undefined): -6.26%; for `CCc1ccc(NC(=O)c2ccc3c(O)c(S(=O)(=O)c4ccc(Cl)cc4)c(=O)[nH]c3c2)cc1`: 1.52%. The same measure for `CCCCN(CC)CCCNC(=O)c1sc2nc(C)cc(C)c2c1-n1cccc1`: 6.36%; for `COCc1cc(=O)n2c([nH]c3ccccc32)c1C#N`: active: 36.9%; for `COc1ccc(CN(C(=O)COc2ccccc2OC)C2CCS(=O)(=O)C2)cc1` (centres undefined): -10.7%. In the case of `Cc1ccc(C)c(NC(=O)CN2C(=O)CCc3ccccc32)c1`, the inhibition was -16.8%. The same measure for `CC(=O)c1ccc(OC(=O)COc2ccccc2Cl)cc1`: active: 47.8%; for `CCCCOc1ccc(C(=O)NCCS(=O)(=O)N2CCN(c3ccc(F)cc3)CC2)cc1`: -11.1%.

Take `CCc1cnc2c(c1SCC(=O)N1CCCCC1)c(=O)n(C)c(=O)n2C`: the inhibition is -5.2%. With `CCOc1ccc(CNCc2c(C(=O)O)n(Cc3ccccc3F)c3cc(OC)ccc23)cc1`, the inhibition is -24.7%.

The record behind these values is PubChem BioAssay AID485344 (National Center for Advancing Translational Sciences (NCATS), 2010).
